First the molecules themselves.
B1: PhoQ; a variant is named by its letters at X, in order, P23837 (parent)
chain: MKKLLRLFFPLSLRVRFLLATAAVVLVLSLAYGMVALIGYSVSFDKTTFRLLRGESNLFYTLAKWENNKLHVELPENIDKQSPTMTLIYDENGQLLWAQRDVPWLMKMIQPDWLKSNGFHEIEADVNDTSLLLSGDHSIQQQLQEVREDDDDAEMTHSVAVNVYPATSRMPKLTIVVVDTIPVELKSSYMVWSWFIYVLSANLLLVIPLLWVAAWWSLRPIEALAKEVRELEEHNRELLNPATTRELTSLVRNLNRLLKSERERYDKYRTTLTDLTHSLKTPLXXLQXXLRSLRSEKMSVSDAEPVMLEQISRISQQIGYYLHRASMRGGTLLSRELHPVAPLLDNLTSALNKVYQRKGVNISLDISPEISFVGEQNDFVEVMGNVLDNACKYCLEFVEISARQTDEHLYIVVEDDGPGIPLSKREVIFDRGQRVDTLRPGQGVGLAVAREITEQYEGKIVAGESMLGGARMEVIFGRQHSAPKDE

Our source for the enrichment ratio values is a collection of fitness landscapes (doi:10.1126/science.1257360).

The other results are listed elsewhere or left out. Some results are limits rather than exact numbers.

In the assay the parent is B1. The experiment in a line: enrichment ratio after two sorts for PhoP signalling (ratio (wild type AVST 3.29)); higher = more functional. Conditions: with PhoP (E. coli).
With LEAH, the enrichment ratio was 0.895. Take WYMP: the enrichment ratio was at most 0.25.

For VTRW, the enrichment ratio is at most 0.25. In the case of HWLV it was at most 0.25; in that of PVDS, at most 0.25. Next, PDQE: at most 0.25; SYWW: at most 0.25. For LMNY, the enrichment ratio is at most 0.25.

For the variant TRFE, the enrichment ratio was at most 0.25.

With RKSS, the enrichment ratio is at most 0.25. Turning to PLNT, the enrichment ratio was at most 0.25. With MIYQ, the enrichment ratio stood at 4.79. Regarding NGFP, the enrichment ratio was at most 0.25.

Turning to RYVF, the enrichment ratio is at most 0.25.

For SWYM, the enrichment ratio was at most 0.25. Take MHDR: the enrichment ratio was at most 0.25. Next, CLVL: at most 0.25; TYEN: at most 0.25. In the case of QIRC, the enrichment ratio was at most 0.25. As for YNML, the enrichment ratio stood at 13.9. In the case of EPCR it was at most 0.25; in that of GDRI, at most 0.25; in that of ASTK, at most 0.25.

On to FVHT, for which the enrichment ratio is at most 0.25.

Regarding YWNN, the enrichment ratio is at most 0.25. In the case of FCMA it was 5.8; in that of GDLN, at most 0.25; in that of VRMY, 0.937. In the case of TGYN it was 4.73. In the case of QKPH, the enrichment ratio is at most 0.25.

As for QHVT, the enrichment ratio is at most 0.25.

With AAAK, the enrichment ratio was at most 0.25. Take MEYP: the enrichment ratio is at most 0.25. For EMQF, the enrichment ratio is at most 0.25. In the case of HMPK, the enrichment ratio is at most 0.25. In the case of GGRD it was at most 0.25. On to AENI, for which the enrichment ratio was at most 0.25.

As to HQLE, the enrichment ratio is at most 0.25. Next, QNCL: at most 0.25. As to FWSQ, the enrichment ratio was at most 0.25.

INQC: the enrichment ratio was at most 0.25. For the variant MQQS, the enrichment ratio is at most 0.25. Next, GWAI: at most 0.25; PPCE: at most 0.25; YCFM: at most 0.25. In the case of IFPP it was at most 0.25. Regarding EDPF, the enrichment ratio is at most 0.25. Next, SDQS: at most 0.25.

On to EDHI, for which the enrichment ratio is at most 0.25. Consider WGIN, for which the enrichment ratio is at most 0.25. VFCQ: the enrichment ratio was at most 0.25.

For SEDG, the enrichment ratio is at most 0.25. In the case of RTAG it was at most 0.25. Next, PEFE: at most 0.25; TWYF: at most 0.25. In the case of WFWK it was at most 0.25; in that of RNRM, at most 0.25. As for YFMV, the enrichment ratio is at most 0.25. Next, NMAY: at most 0.25; PPRS: at most 0.25. As to AQGK, the enrichment ratio is at most 0.25.

Take FGHE: the enrichment ratio is at most 0.25. In the case of QHPD it was at most 0.25; in that of ICTS, at most 0.25; in that of PRHP, 0.827. With ERYA, the enrichment ratio was at most 0.25. Next, HQAW: at most 0.25; IQWC: at most 0.25. In the case of KIIM it was at most 0.25; in that of IINR, at most 0.25; in that of HRCA, at most 0.25. In the case of DREH it was at most 0.25. Consider HIVS, for which the enrichment ratio stood at 2.31.

For the variant MEPK, the enrichment ratio was at most 0.25. DMCE: the enrichment ratio is at most 0.25. In the case of NMIP it was at most 0.25; in that of MPRR, at most 0.25.

On to SIAN, for which the enrichment ratio was 22.8. In the case of WHTR it was at most 0.25; in that of HSAQ, at most 0.25; in that of PVSN, 0.289.

As to LTMK, the enrichment ratio is at most 0.25. Next, RTNL: at most 0.25; TDHS: at most 0.25. For the variant FPFA, the enrichment ratio is at most 0.25. Next, EVMD: at most 0.25; GSRD: at most 0.25.

Regarding VFEQ, the enrichment ratio was at most 0.25.

Regarding SWSC, the enrichment ratio was at most 0.25.

For the variant DMWI, the enrichment ratio was at most 0.25. For IMKD, the enrichment ratio was at most 0.25.

Take SDWE: the enrichment ratio was at most 0.25. Consider LAQH, for which the enrichment ratio was at most 0.25. Next, RFEH: at most 0.25; TDDH: at most 0.25. With QNRK, the enrichment ratio is at most 0.25. In the case of LIGC it was at most 0.25; in that of IKLN, at most 0.25; in that of VAVW, at most 0.25.

As to FWQY, the enrichment ratio is at most 0.25.

Consider HMWH, for which the enrichment ratio is at most 0.25. In the case of ILPL it was at most 0.25; in that of EQVS, at most 0.25. In the case of YRYH it was at most 0.25. In the case of HKNY it was at most 0.25; in that of SDQQ, at most 0.25; in that of PPML, at most 0.25.

In the case of LHEY, the enrichment ratio was at most 0.25.

In the case of DMPA, the enrichment ratio is at most 0.25. Next, KENL: at most 0.25; KMWT: at most 0.25. In the case of HVSP it was at most 0.25; in that of FTWL, at most 0.25. Next, ESVT: at most 0.25. For NGMS, the enrichment ratio is at most 0.25. In the case of WVYV it was at most 0.25; in that of LDQV, at most 0.25; in that of EGSF, at most 0.25. In the case of MDAA it was at most 0.25. Next, MMLH: at most 0.25; EHWR: at most 0.25; AAMS: 1.14.

With YNHA, the enrichment ratio was at most 0.25. With VIER, the enrichment ratio was at most 0.25. In the case of RGME it was at most 0.25; in that of RWNR, at most 0.25; in that of TFAN, at most 0.25. Next, EHAY: at most 0.25; EVVK: at most 0.25; AKPW: at most 0.25.

For PDHQ, the enrichment ratio is at most 0.25. In the case of DYIC it was at most 0.25. For the variant YWVD, the enrichment ratio was at most 0.25.

Consider FRMY, for which the enrichment ratio is at most 0.25. Turning to MWGF, the enrichment ratio is at most 0.25. With VNTA, the enrichment ratio was at most 0.25. Consider KVIA, for which the enrichment ratio was at most 0.25. Consider HAVF, for which the enrichment ratio is at most 0.25. In the case of TIAY it was at most 0.25; in that of KICF, at most 0.25. With NGRC, the enrichment ratio was at most 0.25.

With NQGQ, the enrichment ratio is at most 0.25. Consider FGLM, for which the enrichment ratio amounted to 5.23. Regarding DSVN, the enrichment ratio was at most 0.25.

For SCRD, the enrichment ratio was at most 0.25. Next, WPVR: at most 0.25; DCMN: at most 0.25. In the case of YYCQ it was at most 0.25; in that of EADA, at most 0.25; in that of DHYG, at most 0.25. Next, MTHQ: 1.88; PFFP: at most 0.25; ERNI: 1.92.

Take WPPM: the enrichment ratio is at most 0.25.

LIRR: the enrichment ratio was at most 0.25. Next, WQVA: at most 0.25. In the case of FHRR it was at most 0.25; in that of QLNL, at most 0.25. Take KGME: the enrichment ratio is at most 0.25. Next, ERPS: at most 0.25. As to SFNI, the enrichment ratio is at most 0.25. For the variant RRAI, the enrichment ratio is at most 0.25. In the case of MHPP it was at most 0.25; in that of LFYY, at most 0.25; in that of LFKK, at most 0.25. Next, MMDF: at most 0.25; NRAK: at most 0.25. DWER: the enrichment ratio is at most 0.25. Next, RGHK: at most 0.25; SSVE: 6.96; VNML: 14.6. Turning to TRVD, the enrichment ratio was at most 0.25. Turning to APNG, the enrichment ratio is at most 0.25. As to WKRC, the enrichment ratio was at most 0.25. Next, CLCS: at most 0.25. On to LHNE, for which the enrichment ratio was at most 0.25. Next, HFLT: at most 0.25. On to ERTC, for which the enrichment ratio was at most 0.25. In the case of YQCL it was at most 0.25; in that of VWKI, at most 0.25; in that of AQGN, 6.95. In the case of GTME it was at most 0.25; in that of LCCR, at most 0.25; in that of WANG, at most 0.25. CAFP: the enrichment ratio is at most 0.25. As to SRVM, the enrichment ratio was 9.78. Next, EFAT: at most 0.25; ANPP: at most 0.25. As for GQGD, the enrichment ratio is at most 0.25. Consider HTWP, for which the enrichment ratio was at most 0.25. As for FHAC, the enrichment ratio was at most 0.25. In the case of FPCL it was at most 0.25; in that of WSSM, at most 0.25; in that of SEFS, 7.06.

On to DFAG, for which the enrichment ratio was at most 0.25.
